From the supplement of paper PMC8728848
The other results are listed elsewhere or left out.

What was measured:
Assay in all cases: glycan array binding signal (z-score within array); higher = stronger binding
Details in all cases: glycan notation: IUPAC condensed, linker removed
Neu5Ac(a2-3)Gal = molecular target: Neu5Ac(a2-3)Gal
Procedure, shortened: (§1)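 Columns mapping to the same glycan were averaged after glycan names were converted to IUPAC-condensed notation. The data come from 3228 arrays in the Consortium for Functional Glycomics database, limited to those with an available protein sequence. Binding is reported as a within-array Z-score averaged across arrays of one protein sequence and across linkers.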

[1] = molecular target: Neu5Ac(a2-3)Gal(b1-3)GalNAc
Procedure, shortened: as §1

[2] = molecular target: Neu5Ac(a2-3)Gal(b1-3)GalNAc(b1-3)Gal(a1-4)Gal(b1-4)Glc
Procedure, shortened: as §1

[3] = molecular target: Neu5Ac(a2-3)Gal(b1-3)GalNAc(b1-4)Gal(b1-4)Glc
Procedure, shortened: as §1

[4] = molecular target: Neu5Ac(a2-3)Gal(b1-3)GalNAc(b1-4)[Neu5Ac(a2-3)]Gal(b1-4)Glc
Procedure, shortened: as §1

[5] = molecular target: Neu5Ac(a2-3)Gal(b1-3)GalNAc(b1-4)[Neu5Ac(a2-8)Neu5Ac(a2-3)]Gal(b1-4)Glc
Procedure, shortened: as §1

[6] = molecular target: Neu5Ac(a2-3)Gal(b1-3)GalNAc6S
Procedure, shortened: as §1

[7] = molecular target: Neu5Ac(a2-3)Gal(b1-3)GlcNAc
Procedure, shortened: as §1

[8] = molecular target: Neu5Ac(a2-3)Gal(b1-3)GlcNAc(b1-2)Man
Procedure, shortened: as §1

[9] = molecular target: Neu5Ac(a2-3)Gal(b1-3)GlcNAc(b1-2)Man(a1-3)[GlcNAc(b1-4)][Neu5Ac(a2-3)Gal(b1-3)GlcNAc(b1-2)Man(a1-6)]Man(b1-4)GlcNAc(b1-4)GlcNAc
Procedure, shortened: as §1

[10] = molecular target: Neu5Ac(a2-3)Gal(b1-3)GlcNAc(b1-2)Man(a1-3)[Neu5Ac(a2-3)Gal(b1-3)GlcNAc(b1-2)Man(a1-6)]Man(b1-4)GlcNAc(b1-4)GlcNAc
Procedure, shortened: as §1

[11] = molecular target: Neu5Ac(a2-3)Gal(b1-3)GlcNAc(b1-2)[Neu5Ac(a2-3)Gal(b1-3)GlcNAc(b1-4)]Man(a1-6)[Neu5Ac(a2-3)Gal(b1-3)GlcNAc(b1-2)Man(a1-3)]Man(b1-4)GlcNAc(b1-4)GlcNAc
Procedure, shortened: as §1

[12] = molecular target: Neu5Ac(a2-3)Gal(b1-3)GlcNAc(b1-3)Gal(b1-3)GlcNAc
Procedure, shortened: as §1

[13] = molecular target: Neu5Ac(a2-3)Gal(b1-3)GlcNAc(b1-3)Gal(b1-4)GlcNAc
Procedure, shortened: as §1

[14] = molecular target: Neu5Ac(a2-3)Gal(b1-3)GlcNAc(b1-3)GalNAc
Procedure, shortened: as §1

[15] = molecular target: Neu5Ac(a2-3)Gal(b1-3)GlcNAc(b1-6)GalNAc
Procedure, shortened: as §1

[16] = molecular target: Neu5Ac(a2-3)Gal(b1-3)GlcNAc6S
Procedure, shortened: as §1

[17] = molecular target: Neu5Ac(a2-3)Gal(b1-3)[Fuc(a1-4)]GlcNAc
Procedure, shortened: as §1

[18] = molecular target: Neu5Ac(a2-3)Gal(b1-3)[Fuc(a1-4)]GlcNAc(b1-3)Gal(b1-3)[Fuc(a1-4)]GlcNAc
Procedure, shortened: as §1

[19] = molecular target: Neu5Ac(a2-3)Gal(b1-3)[Fuc(a1-4)]GlcNAc(b1-3)Gal(b1-4)[Fuc(a1-3)]GlcNAc
Procedure, shortened: as §1

[20] = molecular target: Neu5Ac(a2-3)Gal(b1-3)[GlcNAc(b1-6)]GalNAc
Procedure, shortened: as §1

[21] = molecular target: Neu5Ac(a2-3)Gal(b1-3)[Neu5Ac(a2-6)]GalNAc
Procedure, shortened: as §1

[22] = molecular target: Neu5Ac(a2-3)Gal(b1-3)[Neu5Ac(a2-6)]GlcNAc(b1-3)[Fuc(a1-3)[Gal(b1-4)]GlcNAc(b1-6)]Gal(b1-4)Glc
Procedure, shortened: as §1

[23] = molecular target: Neu5Ac(a2-3)Gal(b1-3)]Neu5Ac(a2-3)Gal(b1-4)]GlcNAc
Procedure, shortened: as §1

Neu5Ac(a2-3)Gal(b1-4)Glc = molecular target: Neu5Ac(a2-3)Gal(b1-4)Glc
Procedure, shortened: as §1

[24] = molecular target: Neu5Ac(a2-3)Gal(b1-4)GlcNAc
Procedure, shortened: as §1

[25] = molecular target: Neu5Ac(a2-3)Gal(b1-4)GlcNAc(b1-2)Man
Procedure, shortened: as §1

[26] = molecular target: Neu5Ac(a2-3)Gal(b1-4)GlcNAc(b1-2)Man(a1-3)[GlcNAc(b1-4)][Neu5Ac(a2-3)Gal(b1-4)GlcNAc(b1-2)Man(a1-6)]Man(b1-4)GlcNAc(b1-4)GlcNAc
Procedure, shortened: as §1

[27] = molecular target: Neu5Ac(a2-3)Gal(b1-4)GlcNAc(b1-2)Man(a1-3)[Neu5Ac(a2-3)Gal(b1-4)GlcNAc(b1-2)Man(a1-6)]Man(b1-4)GlcNAc(b1-4)GlcNAc
Procedure, shortened: as §1

[28] = molecular target: Neu5Ac(a2-3)Gal(b1-4)GlcNAc(b1-2)Man(a1-3)[Neu5Ac(a2-3)Gal(b1-4)GlcNAc(b1-2)Man(a1-6)]Man(b1-4)GlcNAc(b1-4)[Fuc(a1-6)]GlcNAc
Procedure, shortened: as §1

[29] = molecular target: Neu5Ac(a2-3)Gal(b1-4)GlcNAc(b1-2)Man(a1-3)[Neu5Ac(a2-6)Gal(b1-4)GlcNAc(b1-2)Man(a1-6)]Man(b1-4)GlcNAc(b1-4)GlcNAc
Procedure, shortened: as §1

[30] = molecular target: Neu5Ac(a2-3)Gal(b1-4)GlcNAc(b1-2)[Neu5Ac(a2-3)Gal(b1-4)GlcNAc(b1-4)]Man(a1-3)[GlcNAc(b1-4)][Neu5Ac(a2-3)Gal(b1-4)GlcNAc(b1-2)[Neu5Ac(a2-3)Gal(b1-4)GlcNAc(b1-6)]Man(a1-6)]Man(b1-4)GlcNAc(b1-4)GlcNAc
Procedure, shortened: as §1

[31] = molecular target: Neu5Ac(a2-3)Gal(b1-4)GlcNAc(b1-2)[Neu5Ac(a2-3)Gal(b1-4)GlcNAc(b1-4)]Man(a1-3)[GlcNAc(b1-4)][Neu5Ac(a2-3)Gal(b1-4)GlcNAc(b1-4)Man(a1-6)]Man(b1-4)GlcNAc(b1-4)GlcNAc
Procedure, shortened: as §1

[32] = molecular target: Neu5Ac(a2-3)Gal(b1-4)GlcNAc(b1-2)[Neu5Ac(a2-3)Gal(b1-4)GlcNAc(b1-6)]Man(a1-6)[Neu5Ac(a2-3)Gal(b1-4)GlcNAc(b1-2)Man(a1-3)][GlcNAc(b1-4)]Man(b1-4)GlcNAc(b1-4)GlcNAc
Procedure, shortened: as §1

[33] = molecular target: Neu5Ac(a2-3)Gal(b1-4)GlcNAc(b1-3)Gal
Procedure, shortened: as §1

[34] = molecular target: Neu5Ac(a2-3)Gal(b1-4)GlcNAc(b1-3)Gal(b1-3)GlcNAc
Procedure, shortened: as §1

[35] = molecular target: Neu5Ac(a2-3)Gal(b1-4)GlcNAc(b1-3)Gal(b1-4)GlcNAc
Procedure, shortened: as §1

B1: Siglec-9 (Homo sapiens), Q9Y336 (protein)
chain: MLLLLLPLLWGRERAEGQTSKLLTMQSSVTVQEGLCVHVPCSFSYPSHGWIYPGPVVHGYWFREGANTDQDAPVATNNPARAVWEETRDRFHLLGDPHTKNCTLSIRDARRSDAGRYFFRMEKGSIKWNYKHHRLSVNVTALTHRPNILIPGTLESGCPQNLTCSVPWACEQGTPPMISWIGTSVSPLDPSTTRSSVLTLIPQPQDHGTSLTCQVTFPGASVTTNKTVHLNVSYPPQNLTMTVFQGDGTVSTVLGNGSSLSLPEGQSLRLVCAVDAVDSNPPARLSLSWRGLTLCPSQPSNPGVLELPWVHLRDAAEFTCRAQNPLGSQQVYLNVSLQSKATSGVTQGVVGGAGATALVFLSFCVIFVVVRSCRKKSARPAAGVGDTGIEDANAVRGSASQGPLTEPWAEDSPPDQPPPASARSSVGEGELQYASLSFQMVKPWDSRGQEATDTEYSEIKIHR
- glycan array binding signal (z-score) (Neu5Ac(a2-3)Gal): 0.007
- glycan array binding signal (z-score) [1]: 0.648
- glycan array binding signal (z-score) [2]: -0.249
- glycan array binding signal (z-score) [3]: -0.072
- glycan array binding signal (z-score) [4]: 0.198
- glycan array binding signal (z-score) [5]: -0.218
- glycan array binding signal (z-score) [6]: 1.05
- glycan array binding signal (z-score) [7]: 0.087
- glycan array binding signal (z-score) [8]: 0.308
- glycan array binding signal (z-score) [9]: 0.178
- glycan array binding signal (z-score) [10]: -0.061
- glycan array binding signal (z-score) [11]: -0.076
- glycan array binding signal (z-score) [12]: -0.277
- glycan array binding signal (z-score) [13]: -0.097
- glycan array binding signal (z-score) [14]: -0.049
- glycan array binding signal (z-score) [15]: 0.961
- glycan array binding signal (z-score) [16]: 0.256
- glycan array binding signal (z-score) [17]: 0.15
- glycan array binding signal (z-score) [18]: -0.103
- glycan array binding signal (z-score) [19]: -0.101
- glycan array binding signal (z-score) [20]: 0.02
- glycan array binding signal (z-score) [21]: 0.383
- glycan array binding signal (z-score) [22]: 0.225
- glycan array binding signal (z-score) [23]: 1.76
- glycan array binding signal (z-score) (Neu5Ac(a2-3)Gal(b1-4)Glc): 1.09
- glycan array binding signal (z-score) [24]: 0.222
- glycan array binding signal (z-score) [25]: 0.478
- glycan array binding signal (z-score) [26]: 0.06
- glycan array binding signal (z-score) [27]: 0.031
- glycan array binding signal (z-score) [28]: 0.17
- glycan array binding signal (z-score) [29]: -0.38
- glycan array binding signal (z-score) [30]: 0.336
- glycan array binding signal (z-score) [31]: 0.007
- glycan array binding signal (z-score) [32]: -0.042
- glycan array binding signal (z-score) [33]: 0.023
- glycan array binding signal (z-score) [34]: -0.278
- glycan array binding signal (z-score) [35]: -0.004
